Three molecules from publication PMC4980431, “Ctf4 Is a Hub in the Eukaryotic Replisome that Links Multiple CIP-Box Proteins to the CMG Helicase” (Molecular Cell, 2016) can be followed below.

Sequences of proteins named here, by UniProt entry; tags and fusion partners are left off.
UniProt P38859: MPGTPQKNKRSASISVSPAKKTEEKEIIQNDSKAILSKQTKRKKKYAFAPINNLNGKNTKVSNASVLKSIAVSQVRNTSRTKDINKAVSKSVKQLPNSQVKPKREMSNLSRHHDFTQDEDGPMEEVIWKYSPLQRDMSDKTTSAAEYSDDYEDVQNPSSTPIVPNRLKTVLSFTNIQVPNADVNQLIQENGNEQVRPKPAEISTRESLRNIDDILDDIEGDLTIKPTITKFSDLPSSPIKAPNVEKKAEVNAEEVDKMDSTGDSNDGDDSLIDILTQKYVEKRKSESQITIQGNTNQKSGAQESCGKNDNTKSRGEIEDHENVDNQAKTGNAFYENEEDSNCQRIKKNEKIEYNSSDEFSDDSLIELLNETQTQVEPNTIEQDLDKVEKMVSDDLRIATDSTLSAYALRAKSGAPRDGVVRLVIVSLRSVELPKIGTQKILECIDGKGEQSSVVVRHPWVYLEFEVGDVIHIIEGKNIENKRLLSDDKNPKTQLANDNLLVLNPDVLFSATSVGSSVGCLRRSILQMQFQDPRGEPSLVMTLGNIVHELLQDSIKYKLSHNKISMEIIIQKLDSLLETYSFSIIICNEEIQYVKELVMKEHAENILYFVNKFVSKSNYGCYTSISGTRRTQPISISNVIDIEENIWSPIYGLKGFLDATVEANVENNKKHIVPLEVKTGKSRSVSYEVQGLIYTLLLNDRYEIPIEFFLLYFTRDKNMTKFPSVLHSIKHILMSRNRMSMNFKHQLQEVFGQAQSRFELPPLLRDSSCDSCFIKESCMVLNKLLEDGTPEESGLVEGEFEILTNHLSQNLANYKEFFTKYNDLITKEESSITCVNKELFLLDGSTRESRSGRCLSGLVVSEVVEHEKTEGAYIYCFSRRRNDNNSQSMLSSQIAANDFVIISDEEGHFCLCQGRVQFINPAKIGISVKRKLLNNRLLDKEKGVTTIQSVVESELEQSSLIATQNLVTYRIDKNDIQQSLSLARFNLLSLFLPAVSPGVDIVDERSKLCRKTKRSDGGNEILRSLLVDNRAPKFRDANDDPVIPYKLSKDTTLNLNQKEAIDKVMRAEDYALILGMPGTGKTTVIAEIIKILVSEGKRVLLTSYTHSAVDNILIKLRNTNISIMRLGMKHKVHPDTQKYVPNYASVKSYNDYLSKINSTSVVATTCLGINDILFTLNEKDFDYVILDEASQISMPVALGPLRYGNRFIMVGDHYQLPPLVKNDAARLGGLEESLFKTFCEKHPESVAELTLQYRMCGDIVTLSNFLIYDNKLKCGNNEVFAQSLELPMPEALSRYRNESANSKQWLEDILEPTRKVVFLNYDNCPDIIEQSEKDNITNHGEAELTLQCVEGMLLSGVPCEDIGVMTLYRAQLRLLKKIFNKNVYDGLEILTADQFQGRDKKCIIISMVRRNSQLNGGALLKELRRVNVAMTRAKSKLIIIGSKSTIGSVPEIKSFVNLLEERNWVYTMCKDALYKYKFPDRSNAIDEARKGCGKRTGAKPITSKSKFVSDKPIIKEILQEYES

Where a chain is given by its changes, count along the chain named. These are yes or no findings as the source states them, for the method shown. For part of these data: Binding seen in cells or lysates may run through a third protein. Some results given as binding are weak or reduced against the parent protein; the word gives no strength.

Experiment [1] has as its target T1, Ctf4-TAP (budding yeast) (UniProt Q01454).
T1 sequence: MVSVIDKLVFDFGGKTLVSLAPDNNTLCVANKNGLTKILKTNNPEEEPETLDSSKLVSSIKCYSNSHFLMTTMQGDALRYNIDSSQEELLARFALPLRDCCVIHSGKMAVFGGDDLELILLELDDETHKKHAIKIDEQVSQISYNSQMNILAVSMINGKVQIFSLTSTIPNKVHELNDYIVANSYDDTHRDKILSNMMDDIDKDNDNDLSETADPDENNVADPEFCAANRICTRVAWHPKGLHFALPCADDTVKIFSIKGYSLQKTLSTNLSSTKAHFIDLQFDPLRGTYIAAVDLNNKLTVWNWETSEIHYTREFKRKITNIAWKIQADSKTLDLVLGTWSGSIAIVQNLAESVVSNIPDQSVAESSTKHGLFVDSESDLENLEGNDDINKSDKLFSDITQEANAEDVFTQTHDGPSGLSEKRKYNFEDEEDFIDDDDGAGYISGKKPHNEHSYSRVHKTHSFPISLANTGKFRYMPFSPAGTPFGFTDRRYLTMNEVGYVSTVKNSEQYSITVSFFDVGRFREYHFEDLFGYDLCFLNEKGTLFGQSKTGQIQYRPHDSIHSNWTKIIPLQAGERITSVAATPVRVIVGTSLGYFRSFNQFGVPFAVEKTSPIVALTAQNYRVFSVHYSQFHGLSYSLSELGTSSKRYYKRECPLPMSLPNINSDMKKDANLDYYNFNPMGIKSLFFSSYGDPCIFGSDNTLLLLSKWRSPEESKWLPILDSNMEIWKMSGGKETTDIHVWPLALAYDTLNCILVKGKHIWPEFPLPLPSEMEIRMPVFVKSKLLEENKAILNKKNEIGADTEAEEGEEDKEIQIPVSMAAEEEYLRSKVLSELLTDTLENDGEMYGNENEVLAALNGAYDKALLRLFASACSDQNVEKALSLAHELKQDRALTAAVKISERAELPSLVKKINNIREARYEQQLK
The experiment can be described thus: co-IP; Ctf4-TAP isolated on magnetic beads coupled to IgG from extracts of S phase cells expressing GAL-DNA2-9MYC; immunoblotting. On the technique in general: In western blotting, separated proteins are transferred to a membrane and probed.

The target of experiment [2] is T1, Ctf4-TAP (budding yeast). The experiment can be described thus: co-IP; Ctf4-TAP isolated on magnetic beads coupled to IgG from extracts of G1-phase cells expressing GAL-DNA2-9MYC; immunoblotting.
Experiment [3] concerns the target T2, Ctf4-4E (two-hybrid) (budding yeast) (UniProt Q01454).
T2 sequence: T1 sequence with L867E, A871E, A897E, I901E
The experiment can be described thus: two-hybrid; directed yeast two-hybrid assay, fusions to the activation and DNA-binding domains of Gal4.

The target in experiment [4] is T3, wild-type Ctf4 (two-hybrid, limits not stated) (budding yeast) (UniProt Q01454).
T3 sequence: T1 sequence
The description is as above.

In experiment [5] the target is T4, Ctf4-3E (two-hybrid) (budding yeast) (UniProt Q01454).
T4 sequence: T1 sequence with M731E, I740E, L756E
Described as above.

The target of experiment [6] is T5, Tof2 peptide 497–517 (yeast).
T5 sequence (peptide, amino-terminal fluorescein label): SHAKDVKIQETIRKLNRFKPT
The experiment can be described thus: fluorescence polarisation; fluorescence anisotropy; serial dilutions of Ctf4CTD with 40 nM (Sld5, Tof2) or 50 nM (Dna2) fluorescein-labeled peptide; 20 mM HEPES pH 7.2, 140 mM KCl, 5% glycerol, 25°C; both purified. A general note: Fluorescence polarisation rises when a labelled molecule tumbles more slowly, as on binding a larger partner.

As to Dna2-9MYC (from UniProt P38859 1-1522), the binding result is “binds” in the experiment with Ctf4-TAP (budding yeast) [1] and “no binding (condition: extracts of G1-phase cells)” with Ctf4-TAP (budding yeast) [2].

With “Dna2 (two-hybrid, Figures 5B and 5C, limits not stated) (from UniProt P38859 1-1522)”, the binding entry was “no binding” in experiment [3], “binds” in experiment [4] and “binds” in experiment [5].

B1: Ctf4 471–927 (domain or fragment, budding yeast, UniProt Q01454 471-927, looked up)
chain: TGKFRYMPFSPAGTPFGFTDRRYLTMNEVGYVSTVKNSEQYSITVSFFDVGRFREYHFEDLFGYDLCFLNEKGTLFGQSKTGQIQYRPHDSIHSNWTKIIPLQAGERITSVAATPVRVIVGTSLGYFRSFNQFGVPFAVEKTSPIVALTAQNYRVFSVHYSQFHGLSYSLSELGTSSKRYYKRECPLPMSLPNINSDMKKDANLDYYNFNPMGIKSLFFSSYGDPCIFGSDNTLLLLSKWRSPEESKWLPILDSNMEIWKMSGGKETTDIHVWPLALAYDTLNCILVKGKHIWPEFPLPLPSEMEIRMPVFVKSKLLEENKAILNKKNEIGADTEAEEGEEDKEIQIPVSMAAEEEYLRSKVLSELLTDTLENDGEMYGNENEVLAALNGAYDKALLRLFASACSDQNVEKALSLAHELKQDRALTAAVKISERAELPSLVKKINNIREARYEQQLK
notes: also called Ctf4CTD; source: purified Ctf4CTD protein
Consider B1, for which the binding result in experiment [6] is given as “binds weakly”.
